{"source": "the BET-seq Pho4 binding data (Le et al. 2018)", "note": "The list shows a part of the results. The energies were worked out here from pooled read counts, against the library average; single values are noisy."}
{"target": "T1, Pho4 (S. cerevisiae) (UniProt P07270)", "T1 sequence": "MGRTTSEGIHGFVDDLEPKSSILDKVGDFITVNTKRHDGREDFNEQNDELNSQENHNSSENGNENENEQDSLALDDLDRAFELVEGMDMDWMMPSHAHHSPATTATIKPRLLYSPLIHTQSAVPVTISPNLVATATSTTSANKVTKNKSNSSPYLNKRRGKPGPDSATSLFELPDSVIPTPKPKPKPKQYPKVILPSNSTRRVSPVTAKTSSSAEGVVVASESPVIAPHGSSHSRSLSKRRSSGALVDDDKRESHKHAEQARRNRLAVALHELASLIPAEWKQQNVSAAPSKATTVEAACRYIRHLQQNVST", "assay": "relative binding free energy (BET-seq); higher = weaker binding", "conditions": "reference: library average", "units": {"relative binding free energy": "kcal/mol"}}
{"sequence": "TGGGGCACGTGGGGAG", "relative binding free energy": -0.17}
{"sequence": "AATCTCACGTGGGTGT", "relative binding free energy": 0.23}
{"sequence": "TGGCTCACGTGTTGAT", "relative binding free energy": 0.22}
{"sequence": "AATTTCACGTGTGGTC", "relative binding free energy": 0.25}
{"sequence": "ATAAGCACGTGTATAT", "relative binding free energy": -0.05}
{"sequence": "CGAGGCACGTGGGTTT", "relative binding free energy": -0.06}
{"sequence": "TCTATCACGTGAGGGA", "relative binding free energy": 0.29}
{"sequence": "TGCAGCACGTGGTAAT", "relative binding free energy": -0.13}
{"sequence": "ATTTACACGTGGAGTA", "relative binding free energy": 0.01}
{"sequence": "GGTGCCACGTGGATTG", "relative binding free energy": -0.15}
{"sequence": "TTGTGCACGTGGCGAT", "relative binding free energy": -0.05}
{"sequence": "GTCGGCACGTGCGGAG", "relative binding free energy": 0.03}
{"sequence": "AAAGTCACGTGTGGAT", "relative binding free energy": 0.2}
{"sequence": "ATTGCCACGTGAGGCG", "relative binding free energy": 0.14}
{"sequence": "TAATGCACGTGGGCAT", "relative binding free energy": -0.13}
{"sequence": "TAGGCCACGTGGTAGT", "relative binding free energy": -0.22}
{"sequence": "TGCGTCACGTGTTAAT", "relative binding free energy": 0.12}
{"sequence": "GGGCTCACGTGTTGTG", "relative binding free energy": 0.18}
{"sequence": "TGTGTCACGTGACGAA", "relative binding free energy": 0.13}
{"sequence": "TTATGCACGTGGTGAG", "relative binding free energy": -0.09}
{"sequence": "GTCTTCACGTGGTTTT", "relative binding free energy": 0.37}
{"sequence": "ACGTACACGTGTAGGT", "relative binding free energy": 0.08}
{"sequence": "TGTGTCACGTGGCGTG", "relative binding free energy": 0.06}
{"sequence": "GATTCCACGTGTTGTG", "relative binding free energy": 0.22}
{"sequence": "GCCGTCACGTGGTTGG", "relative binding free energy": 0.08}
{"sequence": "CGGGACACGTGTTATT", "relative binding free energy": 0.11}
{"sequence": "GCTAACACGTGGGGGG", "relative binding free energy": -0.22}
{"sequence": "GGCGTCACGTGTGATT", "relative binding free energy": 0.34}
{"sequence": "GTTACCACGTGTAGTT", "relative binding free energy": 0.06}
{"sequence": "CTATGCACGTGGTGTC", "relative binding free energy": -0.12}
{"sequence": "GTTGGCACGTGTAACT", "relative binding free energy": 0.12}
{"sequence": "GTAGGCACGTGGCTAG", "relative binding free energy": -0.29}
{"sequence": "GTTGCCACGTGCTGGG", "relative binding free energy": -0.12}
{"sequence": "TGACTCACGTGTGTTA", "relative binding free energy": 0.34}
{"sequence": "TATCTCACGTGAGGGT", "relative binding free energy": 0.47}
{"sequence": "CGGTGCACGTGGGGAA", "relative binding free energy": -0.11}
{"sequence": "GGTAACACGTGAGGTG", "relative binding free energy": 0.29}
{"sequence": "GTAAACACGTGGGGAG", "relative binding free energy": -0.1}
{"sequence": "CATGTCACGTGGCAGG", "relative binding free energy": -0.01}
{"sequence": "TCAGTCACGTGTTACG", "relative binding free energy": 0.18}
{"sequence": "TGACTCACGTGTTGCG", "relative binding free energy": 0.2}
{"sequence": "GGGGGCACGTGGTGAT", "relative binding free energy": -0.14}
{"sequence": "GCTGCCACGTGTAGGG", "relative binding free energy": 0.01}
{"sequence": "ATTAGCACGTGGTGCA", "relative binding free energy": -0.15}
{"sequence": "TGAGCCACGTGGGTGA", "relative binding free energy": -0.17}
{"sequence": "GTTTTCACGTGTGCTC", "relative binding free energy": 0.39}
{"sequence": "AATGTCACGTGGTCTG", "relative binding free energy": -0.02}
{"sequence": "CGATGCACGTGGAGTG", "relative binding free energy": 0.04}
{"sequence": "TTTTGCACGTGTGCGC", "relative binding free energy": 0.1}
{"sequence": "TTGGACACGTGTACAG", "relative binding free energy": 0.12}
{"sequence": "TCGCCCACGTGGGGGT", "relative binding free energy": -0.17}
{"sequence": "ACATGCACGTGGGTGT", "relative binding free energy": -0.34}
{"sequence": "ATCGCCACGTGGTGTT", "relative binding free energy": -0.04}
{"sequence": "GCTTGCACGTGTATTA", "relative binding free energy": 0.13}
{"sequence": "TGTTACACGTGATAAG", "relative binding free energy": 0.38}
{"sequence": "GGTATCACGTGGATAG", "relative binding free energy": 0.28}
{"sequence": "ATGGACACGTGTGATT", "relative binding free energy": 0.17}
{"sequence": "GTATGCACGTGTTAAG", "relative binding free energy": 0.05}
{"sequence": "GGGAGCACGTGGTACG", "relative binding free energy": -0.11}
{"sequence": "TTCACCACGTGTGGTA", "relative binding free energy": 0.2}
{"sequence": "TATTGCACGTGTTAGT", "relative binding free energy": -0.01}
{"sequence": "TGTAGCACGTGGATTC", "relative binding free energy": -0.1}
{"sequence": "GTTAGCACGTGGAGGC", "relative binding free energy": 0.05}
{"sequence": "GGTTTCACGTGGGGTC", "relative binding free energy": 0.21}
{"sequence": "CGTTACACGTGGGTTT", "relative binding free energy": 0.04}
{"sequence": "GTGTTCACGTGGGATG", "relative binding free energy": 0.29}
{"sequence": "ATTTACACGTGTGCGA", "relative binding free energy": 0.13}
{"sequence": "TTGTGCACGTGTGTAG", "relative binding free energy": -0.05}
{"sequence": "GGAGGCACGTGGGTAA", "relative binding free energy": -0.21}
{"sequence": "AGCAGCACGTGATAGG", "relative binding free energy": 0.1}
{"sequence": "GGGAACACGTGGGTTA", "relative binding free energy": -0.09}
{"sequence": "CGTTGCACGTGAGGGA", "relative binding free energy": 0.22}
{"sequence": "AGCTTCACGTGTTGTA", "relative binding free energy": 0.13}
{"sequence": "TATCTCACGTGTAGAT", "relative binding free energy": 0.34}
{"sequence": "GAAGGCACGTGTTTTT", "relative binding free energy": -0.09}
{"sequence": "TGAGGCACGTGGGCTC", "relative binding free energy": -0.16}
{"sequence": "GGAGGCACGTGGCTGG", "relative binding free energy": -0.09}
{"sequence": "TTAGGCACGTGTGGCC", "relative binding free energy": -0.05}
{"sequence": "ATCTACACGTGGCGGG", "relative binding free energy": 0.19}
{"sequence": "TTCTGCACGTGGATTT", "relative binding free energy": -0.03}
{"sequence": "GTCATCACGTGCGTGT", "relative binding free energy": 0}
{"sequence": "TGTGCCACGTGGTTTG", "relative binding free energy": -0.08}
{"sequence": "AGTGTCACGTGAACGT", "relative binding free energy": 0.03}
{"sequence": "GCGGACACGTGCGTGG", "relative binding free energy": -0.09}
{"sequence": "ATGTACACGTGTAAAG", "relative binding free energy": 0.19}
{"sequence": "TAGTGCACGTGGCATT", "relative binding free energy": -0.05}
{"sequence": "CCGAGCACGTGTGGGG", "relative binding free energy": -0.07}
{"sequence": "TTCAGCACGTGGGGAG", "relative binding free energy": -0.15}
{"sequence": "TAATTCACGTGAAGTG", "relative binding free energy": 0.32}
{"sequence": "AGAATCACGTGTATGG", "relative binding free energy": -0.01}
{"sequence": "AACTTCACGTGGTAGT", "relative binding free energy": 0.13}
{"sequence": "GGTGTCACGTGCTGAG", "relative binding free energy": 0.08}
{"sequence": "GCTTTCACGTGGGTGA", "relative binding free energy": 0.22}
{"sequence": "AGTTTCACGTGTTGAT", "relative binding free energy": 0.23}
{"sequence": "GTACTCACGTGGGCGG", "relative binding free energy": 0.15}
{"sequence": "ATGAGCACGTGGAGTA", "relative binding free energy": -0.25}
{"sequence": "TATGACACGTGTCATT", "relative binding free energy": 0.12}
{"sequence": "AATCTCACGTGTGTTC", "relative binding free energy": 0.42}
{"sequence": "TTGTGCACGTGACGGG", "relative binding free energy": 0.12}
{"sequence": "GTTCGCACGTGATTTA", "relative binding free energy": 0.07}
{"sequence": "AGTAGCACGTGGTATA", "relative binding free energy": -0.17}
{"sequence": "TGGGACACGTGCGTCT", "relative binding free energy": -0.03}
{"sequence": "TGTATCACGTGAGGCG", "relative binding free energy": 0.38}
{"sequence": "GTATACACGTGTGGAT", "relative binding free energy": 0.01}
{"sequence": "GGGAGCACGTGGGTGG", "relative binding free energy": -0.12}
{"sequence": "GTTATCACGTGATGAT", "relative binding free energy": 0.22}
{"sequence": "GGCTACACGTGGTAGA", "relative binding free energy": 0.21}
{"sequence": "TTTTACACGTGAGCTG", "relative binding free energy": 0.37}
{"sequence": "TGTGGCACGTGGGGTA", "relative binding free energy": -0.23}
{"sequence": "GGGATCACGTGAGTTA", "relative binding free energy": 0.1}
{"sequence": "TGGGTCACGTGTATAC", "relative binding free energy": 0.08}
{"sequence": "CGTAGCACGTGGGTTA", "relative binding free energy": -0.2}
{"sequence": "AAAAGCACGTGAGTGT", "relative binding free energy": -0.02}
{"sequence": "TGGTGCACGTGAATCG", "relative binding free energy": 0.27}
{"sequence": "TCTAGCACGTGTAGGA", "relative binding free energy": -0.04}
